# According to the BET-seq Pho4 binding data (Le et al. 2018):
# Some of the results follow. Values were computed here from the reads of four pooled replicates and scatter widely.
# Molecular target: T1, Pho4 (S. cerevisiae) (UniProt P07270)
# T1 sequence: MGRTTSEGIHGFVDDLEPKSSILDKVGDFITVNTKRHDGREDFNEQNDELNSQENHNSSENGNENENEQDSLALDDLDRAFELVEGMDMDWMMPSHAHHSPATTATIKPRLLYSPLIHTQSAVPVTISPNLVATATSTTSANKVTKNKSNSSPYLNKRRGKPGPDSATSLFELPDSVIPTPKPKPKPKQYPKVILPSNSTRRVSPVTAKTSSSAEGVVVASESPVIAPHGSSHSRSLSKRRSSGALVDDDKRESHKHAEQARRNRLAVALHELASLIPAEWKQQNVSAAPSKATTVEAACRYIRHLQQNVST
# Test: relative binding free energy (BET-seq); higher = weaker binding
# Conditions: reference: library average
row,Sequence,relative binding free energy
1,TTTGGCACGTGTAAAG,0.11 kcal/mol
2,GTGAACACGTGTTTTA,-0.06 kcal/mol
3,GGTTCCACGTGTTGGG,0.25 kcal/mol
4,TCCGGCACGTGTTGTT,-0.09 kcal/mol
5,AGCGGCACGTGGGGTA,-0.19 kcal/mol
6,GTCAGCACGTGGGGAT,-0.09 kcal/mol
7,GTAGGCACGTGCATGC,0.06 kcal/mol
8,TTGGTCACGTGTGCGG,0.22 kcal/mol
9,TCTGACACGTGGGGTG,-0.19 kcal/mol
10,TTTATCACGTGTTACT,0.12 kcal/mol
11,AGTGTCACGTGACGTA,0.18 kcal/mol
12,AGTTACACGTGCGGGC,0.29 kcal/mol
13,ATTAGCACGTGGGACG,-0.21 kcal/mol
14,TGTAACACGTGGGTCA,-0.24 kcal/mol
15,AAGGGCACGTGTGAAG,0.04 kcal/mol
16,GTTGTCACGTGCTAGT,0.04 kcal/mol
17,TGTAACACGTGCAGTG,-0.17 kcal/mol
18,TTGGTCACGTGCTGAA,0.07 kcal/mol
19,TTGTGCACGTGAGTTC,0.13 kcal/mol
20,CATGTCACGTGTTAAT,0.05 kcal/mol
21,AGGGCCACGTGGGTTG,-0.23 kcal/mol
22,CAGGACACGTGTCGGT,0.13 kcal/mol
23,AGTTGCACGTGGTTAC,-0.04 kcal/mol
24,TGAGGCACGTGTGATT,-0.03 kcal/mol
25,TTAGGCACGTGGTTCG,-0.13 kcal/mol

row,Sequence,relative binding free energy
1,CATTGCACGTGAGAGG,0.2 kcal/mol
2,GTTGCCACGTGTTATT,0.15 kcal/mol
3,GAGGTCACGTGATTAA,0.33 kcal/mol
4,GGGGTCACGTGTCAGG,0.21 kcal/mol
5,ATAATCACGTGTTCTG,0.1 kcal/mol
6,TGCGTCACGTGGGAGT,-0.01 kcal/mol
7,TGCATCACGTGTTGTA,0.09 kcal/mol
8,AGAATCACGTGGATTT,0.23 kcal/mol
9,TTTTGCACGTGGACGG,0.01 kcal/mol
10,AAGGACACGTGGTAAG,0.04 kcal/mol
11,TGGATCACGTGTATGG,0.25 kcal/mol
12,CGGGGCACGTGAGGTA,0.21 kcal/mol
13,TCTGGCACGTGAGGGA,0.15 kcal/mol
14,AAGTTCACGTGGACTG,0.33 kcal/mol
15,TGGTTCACGTGTATGT,0.33 kcal/mol
16,CATTGCACGTGGGTTT,-0.12 kcal/mol
17,ATAGGCACGTGCAGGG,-0.21 kcal/mol
18,AATGTCACGTGTAAAT,0.31 kcal/mol
19,TGTAGCACGTGACGTG,-0.03 kcal/mol
20,CTGAACACGTGGGAGG,0 kcal/mol
21,ACGGACACGTGTATGT,0.06 kcal/mol
22,TTGCGCACGTGATGGG,0.12 kcal/mol
23,GAGAGCACGTGGCAGT,-0.07 kcal/mol
24,TATTACACGTGGTGTA,-0.05 kcal/mol
25,CAGGGCACGTGGACGG,-0.08 kcal/mol

row,Sequence,relative binding free energy
1,GTCCGCACGTGTTGTT,-0.02 kcal/mol
2,TTACACACGTGAGTTG,0.2 kcal/mol
3,TATGTCACGTGGGCCG,0.12 kcal/mol
4,TTTAGCACGTGGAGCT,-0.08 kcal/mol
5,ATGGACACGTGTCAGT,0.03 kcal/mol
6,GGGGTCACGTGGCTGG,0.14 kcal/mol
7,TATAGCACGTGGTGCG,-0.11 kcal/mol
8,TGTAACACGTGTGAGC,0.1 kcal/mol
9,CTGATCACGTGGTTGT,0.12 kcal/mol
10,GTATACACGTGTCGGG,0.05 kcal/mol
11,GTGAGCACGTGCTGTG,-0.17 kcal/mol
12,ACATTCACGTGGGGTT,0.14 kcal/mol
13,TGAATCACGTGGGCGT,0.09 kcal/mol
14,CTTATCACGTGTTTAA,0.03 kcal/mol
15,GTTGGCACGTGTATCA,0 kcal/mol
16,GTATTCACGTGGTGCG,0.24 kcal/mol
17,AGGTACACGTGAGCGC,0.36 kcal/mol
18,CGTGTCACGTGCTGTA,0.12 kcal/mol
19,GTGGTCACGTGGGTGT,-0.01 kcal/mol
20,GCGGACACGTGAAGGG,0.35 kcal/mol
21,GTACACACGTGATGGT,0.24 kcal/mol
22,GTTAACACGTGGAATG,0.13 kcal/mol
23,GGGTGCACGTGTTCGA,0.04 kcal/mol
